Source: PubChem BioAssay AID1466 (National Center for Advancing Translational Sciences (NCATS), 2008)
The campaign covered roughly 200,000 compounds. About 10 (0.005%) were called active. Inconclusive results, whose numbers are uncertain, are shown with a selection of clear calls. Calls come from the whole dose curve; as a rule, active = well fitted inhibition curve with a large enough effect; inconclusive = small, poorly fitted or top-dose-only effect, or effect the other way, or another doubt; inactive = no such curve, though single readings can be large or run the other way. No potency is given beside an inconclusive call; the fits are too rough.

target: Lysosomal alpha-glucosidase (Homo sapiens) (UniProt P10253); experiment: qHTS Assay for Inhibitors of Human alpha-Glucosidase as a Potential Chaperone Treatment of Pompe Disease; settings: purified human GAA, 4-MU-alpha-glucoside fluorescence; activity change, negative = inhibition: at 76.9 µM (top of the series) unless noted;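 for activity change, negative = inhibition: plate controls were uninhibited enzyme wells for no effect and no-enzyme background for full effect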
In short: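 Enzyme (4 nM final) mixed with compound (up to 77 uM), then 4-MU-alpha-D-pyranoside (400 uM final) added; 20 min at room temperature, pH 5.0. Reaction stopped at pH 10, fluorescence read, AC50 derived by Hill fit.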
Potency is the fitted concentration of half-maximal effect; tags give direction and shape of the fitted curve.

SMILES	Potency	activity change, negative = inhibition
O=C(Cc1ccc(S(=O)(=O)N2CCCC2)s1)Nc1nc2c(s1)CCCC2	inconclusive [inhibitor, partial curve]	–
CCOC(=O)c1nn(-c2ccc(F)cc2)c2nc(-c3ccccc3)c(C#N)c(=O)n12	–	inconclusive: 18.8% [activator]
O=C(O)c1cccc(N2C(=O)c3cccc4c(Cl)ccc(c34)C2=O)c1	–	inconclusive: 17.9% [activator]
N/C(=N\OC(=O)Cc1cccs1)c1ccc([N+](=O)[O-])cc1	inconclusive [inhibitor, single point]	–
NC(=O)c1c(NC(=O)CN2CCCC2)sc2c1CCCC2	inconclusive [inhibitor, partial curve, poor fit]	–
Cc1ccc(NC(=S)Nc2c(C)n(C)n(-c3ccccc3)c2=O)cc1Cl	inconclusive [inhibitor, single point]	–
O=C(NCCc1ccc(O)cc1)c1ccc(Cl)cc1	inconclusive [inhibitor, single point]	–
Cc1ccc(C(=O)Oc2ccccc2N2C(=O)C3CCC(C)CC3C2=O)cc1 (stereo unspecified)	inconclusive [inhibitor, full curve, poor fit]	–
C=CCn1c(N)c(C(=O)OC(C)CC)c2nc3ccccc3nc21 (stereo unspecified)	inconclusive [activator, partial curve]	–
Cc1ccccc1C(=O)Nc1c2c(nc3ccccc13)CCCC2	inconclusive [inhibitor, single point]	–
CC1=C(C(=O)OC(C)C)C(c2cccnc2)C2=C(CCCC2=O)N1 (stereo unspecified)	inconclusive [activator, partial curve]	–
CC1(C)Oc2ccc3ccc(=O)oc3c2C(N2CCCCC2)C1O (stereo unspecified)	inconclusive [inhibitor, single point]	–
C=CC[n+]1c(-c2ccc(Cl)cc2Cl)csc1Nc1ccc(NC(C)=O)cc1	–	inconclusive: -16% [inhibitor]
Cc1c(-c2cccc(NC(=O)c3cccs3)c2)nc2ncccn12	inconclusive [activator, partial curve]	–
O=C(NC(Cc1ccccc1)C(=O)O)/C(=C\c1ccco1)NC(=O)c1ccco1 (stereo unspecified)	–	inconclusive: 17% [activator]
CNC(=O)CSc1nnc(-c2ccc3c(c2)OCO3)n1C	–	inconclusive: 16.7% [activator]
O=C(CN1C(=O)/C(=C\c2cccc(Cl)c2)Oc2ccccc21)N1CCN(c2ccccn2)CC1	inconclusive [activator, partial curve]	–
CCN(CC)S(=O)(=O)c1ccc(Cl)c(C(=O)NCc2ccccc2Cl)c1	inconclusive [inhibitor, full curve]	–
CC12CC(c3ccccc3O1)C(/C(N)=N/NC(=O)c1ccc(F)cc1)C(=O)N2 (stereo unspecified)	inconclusive [inhibitor, single point]	–
Cn1c(CSc2ccccc2)c(C#N)c2ccccc21	inconclusive [inhibitor, single point]	–
CCOC(=O)CSc1ncnc2c1sc1nc(N3CCOCC3)c3c(c12)CCCC3	inconclusive [activator, single point]	–
O=C(CCCCCN1C(=O)c2cccc3cccc(c23)C1=O)NCc1ccco1	–	inconclusive: 32.2% [activator]

SMILES	Potency	activity change, negative = inhibition
CCOC(=O)c1c(C)[nH]c(C)c1C(=O)COC(=O)/C=C/c1cccc(F)c1	inconclusive [inhibitor, single point]	–
COc1cccc(CC(NC(C)=O)C(=O)NC2CCN(S(=O)(=O)c3ccc(F)cc3)CC2)c1OC (stereo unspecified)	–	inconclusive: 16.2% [activator]
Cc1ccccc1NC(=O)CSc1n[nH]c(-c2ccco2)n1	–	inconclusive: 13.4% [activator]
CCOC(=O)C1=C(C)N=C2SC(C)C(=O)N2C1c1ccccc1 (stereo unspecified)	–	inconclusive: 8.95% [activator]
O=C(Nc1ccccc1C(F)(F)F)N1CCN(c2ccccn2)CC1	inconclusive [inhibitor, partial curve, poor fit]	–
O=C(COC(=O)/C=C/c1cccc([N+](=O)[O-])c1)NCc1ccc2c(c1)OCO2	inconclusive [inhibitor, partial curve, poor fit]	–
CCOc1ccc(C(C)NC(=O)Cc2ccccc2)cc1OCC (stereo unspecified)	–	inconclusive: -18.3% [inhibitor]
CCOC(=O)c1sc(NC(=O)CNC(=O)Cn2cnc3sc(C)c(C)c3c2=O)nc1C	inconclusive [inhibitor, full curve]	–
COc1ccc(CC(=O)OCCN(C)C)cc1	inconclusive [inhibitor, partial curve, poor fit]	–
Cn1c(NN)nc2sc3c(c2c1=O)CCC3	inconclusive [inhibitor, partial curve]	–
Cc1ccc(S(=O)(=O)N2CCN(c3ccnc4cc(Cl)ccc34)CC2)cc1	–	inconclusive: -17% [inhibitor]
O=C(CSCc1ccccc1)Nc1ccc(S(=O)(=O)N2CCOCC2)cc1	inconclusive [inhibitor, full curve, poor fit]	–
Cc1ccc(-c2nnc(Nc3ccc4c(c3)OCO4)c3ccccc23)cc1S(=O)(=O)NCCO	inconclusive [inhibitor, single point]	–
COc1ccc(C(=O)Nc2ccc(S(=O)(=O)Nc3onc(C)c3C)cc2)c(OC)c1	inconclusive [inhibitor, single point]	–
Cc1nn(-c2ccc3ccccc3c2)c(=O)c2ccccc12	inconclusive [inhibitor, full curve, poor fit]	–
c1ccc(CCc2ccccc2-c2nc(-c3cccnc3)no2)cc1	–	inconclusive: -22.7% [inhibitor]
Cc1c2c(n3c(nc4ccccc43)c1C#N)N(CCN(C)C)CC2	inconclusive [activator, partial curve]	–
C/C(=N/NC(=O)CN1CCN(S(=O)(=O)c2ccc(Br)cc2)CC1)c1ccco1	–	inconclusive: -15.6% [inhibitor]
COc1ccc(S(=O)(=O)N(CC(=O)N/N=C/c2cccs2)c2cc(C)cc(C)c2)cc1OC	inconclusive [inhibitor, partial curve, poor fit]	–
COc1ccc2ccccc2c1/C=N/NC(=O)c1cccc(Br)c1	inconclusive [inhibitor, single point]	–
O=c1c2ccccc2nnn1CSc1nnnn1-c1ccc(O)cc1	inactive	–
O=S(=O)(NC1c2cccc3cccc(c23)C1N1CCNCC1)c1ccc(Cl)cc1 (stereo unspecified)	inactive	–

SMILES	Potency	activity change, negative = inhibition
Cc1cc(S(=O)(=O)Nc2ccc(C(=O)N3CCN(C(=O)c4ccco4)CC3)cc2)ccc1F	inconclusive [inhibitor, single point]	–
OC(CNCCc1ccc(C(F)(F)F)cc1)COc1cccc2ccccc12 (stereo unspecified)	inconclusive [inhibitor, partial curve]	–
CC(NC(=O)Nc1ccc(O)cc1)(C(F)(F)F)C(F)(F)F	inactive	–
CCOC(=O)c1nnn(-c2nn3nnnc3c3ccccc23)c1C	–	inconclusive: -16% [inhibitor]
N=C1C(c2nc3ccccc3s2)=C(O)CN1CCCO	inconclusive [activator, single point]	–
O=C(O)c1ccccc1N/N=C\c1ccnc2ccccc12	inconclusive [inhibitor, single point]	–
COc1ccc(NC(=S)NNc2ccc([N+](=O)[O-])cc2S(=O)(=O)Nc2ccc(C)cc2C)cc1	inconclusive [inhibitor, single point]	–
Cc1cc(NC(=O)CSc2ncccc2C(=O)O)no1	–	inconclusive: 20.3% [activator]
COc1ccc(CC(=S)N2CCOCC2)cc1	inconclusive [inhibitor, single point]	–
CCc1ccc(-n2cc(-c3ccc(F)cc3)[n+]3c2SCCC3)cc1	inconclusive [inhibitor, single point]	–
Nc1nc(CN2CCCCCC2)nc(Nc2ccc(F)cc2)n1	–	inconclusive: -16.1% [inhibitor]
CCOC(=O)CC(NC(=O)c1cccc2c1C(=O)N(Cc1cccnc1)C2)c1ccc(OC(C)C)cc1 (stereo unspecified)	inconclusive [inhibitor, single point]	–
N#CC1(Nc2cccc(Br)c2)C(=O)Nc2ccccc21 (stereo unspecified)	inconclusive [inhibitor, full curve]	–
Cc1c2cc(O)c(=O)cc-2oc2cc(O)c(O)cc12	inactive	–
Cc1ccc(OC2=NS(=O)(=O)c3ccccc32)cc1	inconclusive [inhibitor, single point]	–
CCCCCCn1c(=O)c(Cc2ccccc2)c(O)c2ccccc21	inactive	–
CCOC(=O)c1ccc(NC(=S)NCCc2ccccc2F)cc1	inconclusive [inhibitor, single point]	–
CCOc1ccc(Nc2cc(=O)oc3ccccc23)cc1	–	inconclusive: 16.3% [activator]
COc1cc2ccccc2cc1C(=O)OCC(=O)N1CCOCC1	inconclusive [activator, partial curve]	–
Nc1nc(-c2ccccc2)c(N=Nc2ccc(Cl)cc2)s1	inactive	–
Cc1ccc(C2CC(=O)c3cnc(NC(=O)c4ccco4)nc3C2)cc1 (stereo unspecified)	–	inconclusive: -17.5% [inhibitor]
Cc1cccc(-c2cc3nc(C)cc(NCCCN(C)C)n3n2)c1	–	inconclusive: -17.4% [inhibitor]
